# In article PMC4336329 (PLoS ONE, 2015):
# The campaign covered roughly 310,000 compounds. About 2,200 (0.71%) showed an effect of 50% or more. The effect is printed as a negative number. The list shows a part of the results.
# Molecular target: human ether-à-go-go-related gene (hERG) potassium channel (human, UniProt Q12809)
# Experiment: primary screen, population patch clamp on CHO cells stably expressing hERG
# Sequence of human ether-à-go-go-related gene (hERG) potassium channel (Q12809 whole entry, looked up): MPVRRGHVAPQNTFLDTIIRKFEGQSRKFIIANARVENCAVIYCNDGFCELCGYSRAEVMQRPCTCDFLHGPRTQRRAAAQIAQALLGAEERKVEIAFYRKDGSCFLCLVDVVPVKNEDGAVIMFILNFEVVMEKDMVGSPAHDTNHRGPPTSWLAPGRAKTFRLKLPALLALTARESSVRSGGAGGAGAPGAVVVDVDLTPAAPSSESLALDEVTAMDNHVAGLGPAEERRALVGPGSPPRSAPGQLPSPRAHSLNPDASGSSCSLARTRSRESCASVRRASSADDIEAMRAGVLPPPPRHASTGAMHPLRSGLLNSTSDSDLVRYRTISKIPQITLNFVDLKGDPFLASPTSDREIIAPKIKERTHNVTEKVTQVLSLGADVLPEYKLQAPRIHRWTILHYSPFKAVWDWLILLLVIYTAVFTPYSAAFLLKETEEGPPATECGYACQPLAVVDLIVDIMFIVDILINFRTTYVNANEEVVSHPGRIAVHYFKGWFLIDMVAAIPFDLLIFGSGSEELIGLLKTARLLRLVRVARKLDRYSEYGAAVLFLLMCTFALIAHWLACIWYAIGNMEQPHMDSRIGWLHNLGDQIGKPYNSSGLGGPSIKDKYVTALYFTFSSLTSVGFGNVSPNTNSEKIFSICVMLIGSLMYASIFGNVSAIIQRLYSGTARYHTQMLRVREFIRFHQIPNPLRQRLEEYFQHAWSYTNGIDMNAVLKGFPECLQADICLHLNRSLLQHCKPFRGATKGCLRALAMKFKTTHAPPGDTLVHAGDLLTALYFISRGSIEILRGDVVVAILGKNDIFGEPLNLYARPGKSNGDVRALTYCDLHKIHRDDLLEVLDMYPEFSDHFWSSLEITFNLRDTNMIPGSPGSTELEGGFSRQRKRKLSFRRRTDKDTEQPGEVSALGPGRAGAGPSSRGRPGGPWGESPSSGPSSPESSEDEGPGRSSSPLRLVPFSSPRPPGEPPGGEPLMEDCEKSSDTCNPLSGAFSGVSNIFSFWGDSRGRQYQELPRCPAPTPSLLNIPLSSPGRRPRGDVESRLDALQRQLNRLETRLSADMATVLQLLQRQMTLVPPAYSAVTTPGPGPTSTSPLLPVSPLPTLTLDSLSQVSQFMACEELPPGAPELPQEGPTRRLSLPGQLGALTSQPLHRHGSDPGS
row,SMILES,"hERG current change (%, negative = inhibition) at 1uM [%]"
1,CCOC(=O)c1cccc(-n2c(C)cc(C=O)c2C)c1,13.8
2,CC(C)(C)n1cc(C(=O)c2ccc3ccccc3c2O)cn1,12
3,C=CCN1C(=O)[C@]2(c3ccccc31)C1CCCC=C1C(C#N)=C(N)C2(C#N)C#N (stereo partly shown),-1.31
4,Cn1c(-c2ccccc2)cnc1NCc1ccc(-c2ccccc2)cc1.O=C(O)C(=O)O,11
5,O=C(Nc1nnc(-c2ccc(Br)cc2)o1)C1=COCCO1,14.7
6,CCCCCC(=O)NC(=S)Nc1ccc(Br)cc1C,11
7,CCOCCCN(CC(=O)NC1CCCC1)C(=O)C(=O)Nc1ccc2c(c1)OCCO2,14.7
8,CC1CCC(NC(=O)CCS(=O)(=O)c2ccc3c(c2)NC(=O)C(C)S3)CC1 (stereo not shown),7.54
9,O=C(CN(Cc1ccc(F)cc1)C(=O)CNS(=O)(=O)c1ccc(Cl)cc1)NCC1CCCO1 (stereo not shown),4.06
10,COC(=O)c1c(C)[nH]c(C(=O)OCc2ccc(F)cc2)c1C,8.44
11,CC(=O)Nc1ccc(S(=O)(=O)NC(CC(=O)NCCc2ccccc2)C(C)C)cc1 (stereo not shown),13.1
12,COCCCNC(=O)Cn1cc(/C=C(\C#N)C(=O)NC2CCCC2)c2ccccc21,5.62
13,COCC(=O)Oc1c(S(=O)(=O)c2ccc(C)cc2)c(C)nn1-c1ccccc1,9.13
14,CCN1CCN(S(=O)(=O)c2cccc(S(=O)(=O)N3CCOCC3)c2)CC1,8.55
15,CCn1c(COc2ccc(=O)n(-c3ccccc3)n2)nnc1SCC(=O)OC,10.4
16,CCC1(N(C(C)=O)c2ccc(OC)cc2)C(=O)c2ccccc2C1=O,10.1
17,O=[N+]([O-])c1ccc(CN2CCCCCC2)cc1,-0.361
18,CC(=O)N1CCC2(CC1)C(C#N)=C(N)Oc1c2sc2nc(C)cc(C)c12,2.24
19,O=C(OCCCOC(=O)c1ccc([N+](=O)[O-])o1)c1ccc([N+](=O)[O-])o1,16.8
20,Cc1cc(C(=O)NC(=S)Nc2ccccc2N2CCCC2)ccc1[N+](=O)[O-],4.82
21,CC1(C)OC(=O)C=C[C@]2(C)[C@H]3CC[C@@]4(C)[C@H](C(=O)O)OC(=O)[C@H]5O[C@]54[C@]3(C)C(=O)C[C@@H]12,0.0752
22,Cc1nn(-c2ccc(F)cc2)c(Cl)c1/C=N/NC(=O)c1ccc(O)cc1,15.8
23,O=C(NCc1nc2ccccc2[nH]1)C1=C[C@@H](c2ccc(C(F)(F)F)cc2)C[C@@H](OCCCCO)O1,7.17
24,Cc1ccc(-c2noc(C3CCCN(C(=O)c4ccc(C(C)(C)C)cc4)C3)n2)o1 (stereo not shown),9.62
25,COC(=O)c1ccccc1NC(=O)c1nc(S(=O)(=O)Cc2ccccc2)ncc1Cl,27.3
26,CCCCN(CC)CCCNC(=O)CN1C(=O)CSc2ccc(S(=O)(=O)N3CCOCC3)cc21,2.31
27,O=C(Nc1ccc(N=Nc2ccccc2)cc1)c1ccccc1Cl,12.5
28,O=C(Cn1nnc(-c2ccccc2)n1)N1CCN(S(=O)(=O)c2ccc(Cl)cc2)CC1,6.11

row,SMILES,"hERG current change (%, negative = inhibition) at 1uM [%]"
1,COc1ccccc1/C=C/C=N/n1c(-c2ccc(Cl)cc2Cl)n[nH]c1=S,21.3
2,O=C(NCCCN1CCCC1=O)c1cc(-c2ccc3c(c2)OCO3)nc2ccccc12,7.65
3,O=C1C2C3CCC(CC3)C2C(=O)N1c1ccccc1 (stereo not shown),18.5
4,Fc1cc(F)cc(NC(=S)N2CCN(c3ncccn3)CC2)c1,2.87
5,CCOc1ccc(S(=O)(=O)N(C)c2ccc(OCC(=O)NCC3CCCO3)cc2)cc1 (stereo not shown),3.38
6,COc1ccc(OC)c(NC(=O)c2ccno2)c1,-4.06
7,CCNNC(=O)C(O)(c1cccc(C)c1)c1cccc(C)c1,13.2
8,O=C(COC(=O)c1ccc(Cl)nc1)NCCC1=CCCCC1,13.1
9,O=C(Nc1nccs1)c1cccc(S(=O)(=O)N2CCOCC2)c1,1.96
10,COC(=O)CSc1nnc(-c2ccccn2)n1Cc1ccco1,3.57
11,Cc1cc(C(F)(F)F)nc(CCNC(=O)C2CCC(=O)N(Cc3cccc(F)c3)C2)n1 (stereo not shown),16.4
12,O=C(CN1C(=O)COc2ccc(Cl)cc21)Nc1ccccn1,10.1
13,O=C1N=C(N2CCN(c3ccccc3)CC2)S/C1=C/c1ccco1,-5.2
14,COc1ccc(S(=O)(=O)N2CCCC2CNC(=O)C(=O)Nc2ccc(C)cc2)cc1 (stereo not shown),-0.606
15,Cc1ccncc1C(N)=O,15
16,Cc1ccc(C(=O)c2cn[nH]c2-c2cc(Cl)ccc2O)cc1,12.4
17,CCOC(=O)c1c(C)[nH]c(C(=O)OCC(=O)NC(C)(C)C)c1C,12.1
18,Cc1ccc(S(=O)(=O)N(Cc2ccc(Cl)cc2)c2ccccc2C(=O)NCc2ccco2)cc1,-8.28
19,Cc1nc(C)c(C(=O)N/N=C/c2ccco2)s1,9.45
20,COC(=O)C(F)(Sc1c(C)n(C)n(-c2ccccc2)c1=O)C(F)(F)F (stereo not shown),5.01
21,Br.Clc1ccc2nc(CN3CCCCCC3)cn2c1,-26.3
22,Cc1ccc2nsnc2c1NC(=O)c1cccc([N+](=O)[O-])c1,1.62
23,O=C1N=C(N2CCCCC2)S/C1=C\c1ccncc1,12.9
24,CCc1nnc(NC(=O)c2c(OC)cccc2OC)s1,10.8
25,CC(=O)c1cccc(Nc2nc(N3CCOCC3)nc(N3CCOCC3)n2)c1.Cl,11.3
26,CCCCNC(=O)CCn1c(=O)c2ccccc2n(Cc2ccc(Cl)cc2)c1=O,1.3
27,O=C(CCN1C(=O)/C(=C/c2ccccc2Cl)SC1=S)N1CCCC1,8.89
